Measurements: the supplement of paper PMC3334620
Over roughly 33,000 sequences, “E-score (-0.5 to 0.5)” has its median near -0.035; the highest 2% begin near 0.34. The list shows a part of the results.

Target: T1, Mot3 (UniProt P54785)
T1 sequence: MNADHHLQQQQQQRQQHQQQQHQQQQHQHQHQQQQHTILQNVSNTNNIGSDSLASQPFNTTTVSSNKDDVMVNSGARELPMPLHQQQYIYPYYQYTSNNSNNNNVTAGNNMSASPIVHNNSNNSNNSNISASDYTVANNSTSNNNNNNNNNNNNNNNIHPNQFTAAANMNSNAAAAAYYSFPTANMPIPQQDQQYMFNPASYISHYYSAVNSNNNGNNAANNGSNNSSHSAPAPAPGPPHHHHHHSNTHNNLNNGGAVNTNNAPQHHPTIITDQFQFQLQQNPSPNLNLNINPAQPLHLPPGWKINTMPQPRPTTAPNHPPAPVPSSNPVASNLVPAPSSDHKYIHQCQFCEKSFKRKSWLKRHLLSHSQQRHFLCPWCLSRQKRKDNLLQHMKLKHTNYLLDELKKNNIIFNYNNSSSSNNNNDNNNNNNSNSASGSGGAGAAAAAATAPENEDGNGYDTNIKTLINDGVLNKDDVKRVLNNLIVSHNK
Experiment: PBM E-score (8-mer binding enrichment) (E-score (-0.5 to 0.5)); higher = stronger / more preferred TF binding; most listed sequences are background and not binding sites
Details: protein concentration: 200 nM; construct: GST-full length
Protocol: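 Universal 'all 10-mer' protein binding microarrays (Agilent AMADID 015681) probed with GST-tagged S. cerevisiae TFs (full-length or DBD) made by in vitro transcription/translation (PURExpress), about 100-200 nM. Bound TF was detected with fluorescent anti-GST. Each ungapped 8-mer (which stands for itself and its reverse complement) is scored by the PBM enrichment score (E-score), a modified Wilcoxon-Mann-Whitney statistic from -0.5 to +0.5, computed with the Universal PBM Analysis Suite. Scale: above 0.35 generally sequence-specific binding.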

Sequence	PBM E-score
GCAGGGAC	-0.14
ACGGGCAT	0.0188
GGGCAAAA	0.0722
CCCTTTTC	-0.088
CTCGGGGC	-0.128
AGAATCCC	-0.066
CTCCATTC	-0.253
CACAGTAC	0.0198
CTACGGTC	-0.0693
AAATCATT	0.0124
ATTGCTCC	-0.0965
CACAACAC	0.302
CAGTCCGG	-0.14
CCTGACCG	-0.159
CAACTCTG	-0.133
AACAGACC	0.155
CTCGGATC	-0.235
CGTTATCC	0.022
AAAGATTT	-0.0251
CATTCGCC	-0.083
AACCCGGA	-0.0971
ATGCCATC	-0.0474
ACCTAGCC	-0.251
AGGCTGTG	0.039
CCGGTGCC	0.055

Sequence	PBM E-score
GCATATAC	-0.0399
GTTCAGTA	0.12
ACGCGGTA	0.104
CGTTATAA	0.15
AAATGGAC	0.235
AGCAGTTC	-0.0376
TCAGGTAA	0.324
AGGCCATC	-0.126
TACGGGGA	-0.244
ATCAGCCA	-0.364
ATCGCCGA	-0.251
AGTCCCCA	-0.348
AAAAGGGT	-0.0622
TCGGATAA	-0.0251
TCTTATAA	-0.0852
CTTCGCGA	-0.183
CGGTCAGA	-0.293
CGCGTAAC	0.225
CAGCGCTC	-0.125
TCACTCCA	-0.108
ATTAAAGC	0.0267
CAGCCTGG	-0.181
ATATCGGA	0.0348
CTCCTACC	-0.0978
TACCCGTA	0.00259

Sequence	PBM E-score
CTAATGTC	0.133
ATATCCGC	-0.0306
AGTTGTTC	0.207
CAAAAAGG	0.0517
AGACTGTG	-0.0723
GTACGGAA	0.0545
AAGCTTGA	-0.196
AAGTCAGA	-0.257
CACGGTCA	0.212
ACCTACTC	0.0618
AGCCGGCC	-0.24
GCCCAAAC	-0.097
AGTATGTC	0.0603
GAAATATC	-0.188
AACTTATG	0.1
CGTAATTC	0.159
CACCCAAC	-0.0999
ATTGCGTC	-0.111
ACTCTACT	-0.0605
ACGACGAA	0.0477
AGAGAAGA	0.0816
CCCCCAGA	-0.307
TTGAAAAA	0.184
AAAGTCTT	-0.00998
ACTTGCAG	-0.11

Sequence	PBM E-score
CTTAACCC	-0.0788
ATAAGCTA	0.00041
CGCCAGTC	-0.146
ATGGCCAG	-0.149
AGCGAAAA	-0.0598
TCAACGAA	0.0622
ACCAGCGG	-0.155
ACCTTGCA	-0.0855
CCGTGATC	-0.32
CTTGTTTA	0.221
ACTTTCCC	0.0581
AACGCGGT	0.201
CAATCTTA	0.0878
GTATGCCA	-0.251
AAAGAGAA	-0.114
ACCAACAA	0.211
CCCTTTCC	0.00701
AGGTAACT	0.297
CCTCAAGA	0.193
TTAGCTAA	-0.0988
ACTACAAA	0.109
ATGTCGAG	0.183
GGTCGAGA	-0.147
ACGATCCG	-0.131
ATTGCGTG	0.24

Sequence	PBM E-score
CGGTCCGC	-0.146
ACCACAAG	-0.0935
AGAGGATC	-0.302
TCCTGAGA	0.0668
CCCAAAAA	0.104
TAATCGTA	0.186
CCGCCTAC	-0.166
ACCTAATG	0.0874
GTCCACAA	0.0584
GCACACAC	0.17
CCAAGAAC	-0.156
AGTTCAAT	-0.0766
AAGTAATA	0.134
CTTGCAGC	-0.0503
AACGTAAG	0.105
CAATACTG	-0.0559
ATCTTTAC	0.233
GATTCTGA	-0.195
AACTGACT	-0.207
CACCTACA	0.227
ATTAGATC	0.096
GCAAGCTA	0.00568
ATCGGATG	-0.132
GCGTACAC	0.186
TGCAGCAA	-0.1

Sequence	PBM E-score
AGTTTCGG	-0.17
GAAACGCC	-0.0316
ATGCAATG	-0.0896
ATCGCTGC	-0.195
GAGGCATC	0.145
CCGGGGGA	-0.233
AGACAGGA	-0.0282
CTTCCTTA	0.146
CCCTGTGC	0.0815
GATGTTGA	0.111
CAAGCTGA	-0.224
CAGTTGCC	0.261
ATTATGGA	-0.0113
AAATGGGT	0.00181
CAAATCTC	-0.0859
CTGATCTC	-0.194
GCACAACC	-0.0592
ACCCTACT	-0.0888
AAGGGGCA	-0.0498
GGGGTTTA	0.00656
TACTCCGA	-0.191
CCACCGCG	-0.11
TACGTCGA	0.0529
ACAAGGCT	0.111
CTAACATC	0.16

Sequence	PBM E-score
CCAGTGAG	-0.284
CCTGTCCA	-0.249
AATCGTCC	0.0205
TAAAGCCA	-0.0175
CCAAGTCC	-0.272
TCATGTCA	0.283
AAGGCGCC	0.304
CTTAAGAA	0.103
GAGCCTGC	0.389
AAACGGAC	-0.243
CATTATAC	0.128
CTCATTCA	-0.0988
ATGAGCCC	-0.225
GCGTTGGA	0.0942
CCAGCCTC	-0.185
ACGTCCTG	-0.036
CAGAATAG	0.148
GCCCGGAA	-0.177
CTGGGATC	-0.191
TGATACCA	-0.119
CTTCGGAC	-0.021
AGACAAGC	-0.087
ATCGCCCA	-0.238
CTGACGTC	-0.154
AAACGCTC	-0.0242

Sequence	PBM E-score
CGTAGCAC	-0.00701
GAGAGATC	-0.139
AATTGGGT	0.145
TCGATGCA	-0.159
AAATCGAC	0.0912
AGTTGGTG	-0.171
CCTCATAA	0.0289
ACATGGCT	0.147
ATGGATTA	-0.0764
ATCATTGC	-0.127
CCACCGGA	-0.257
ACAACCAC	0.00901
GCGGCGAC	-0.282
CCTCGCAC	-0.0626
TCTGACCA	0.0289
ACTCTGGG	0.00618
AGCGCTCG	-0.161
TCCGTAAA	0.101
GTAGAGCA	0.0931
ACACGACA	0.316
AGCCGGCG	-0.301
CTTCTCAC	-0.125
CGACCCAG	-0.157
ACAACGAT	0.155
CAGGCCGA	-0.145

Sequence	PBM E-score
CCCTCGGA	-0.143
CCTGCGGA	0.16
TAGGTACA	0.36
CAACATCA	0.176
ACGTTTAT	0.0624
AGCAGACG	-0.277
GTCTTTGA	-0.083
CCACGATC	0.0336
CGCTGCCA	-0.294
ACCAAAAT	0.0829
CATGCATC	-0.0432
CGATAACG	0.0474
CAGATACA	0.129
AGGCCAGC	-0.0993
GATAACGC	0.159
CTCAAGTA	0.042
ACCCCGGC	-0.193
ACCCCCCC	-0.471
ATGGATAG	-0.112
ATAGACAA	0.0462
AGTTGCGC	-0.0198
GGGGACAA	0.022
CACGAGTA	0.154
AACTACTG	-0.107
GAATACGA	0.136

Sequence	PBM E-score
TCACATGA	0.146
AACAGGGT	-0.0595
CCCCTGCC	-0.119
AGGCGTTC	0.187
ATTCGAGC	-0.0218
GTATGAAA	0.0714
TATAGACA	0.157
GGATTGAA	-0.187
GATGAGGA	-0.0833
ACAGGGTA	0.117
AAGTAACG	0.067
GGGGGGGA	-0.353
AAGTTAGT	0.119
GGGGGTAA	-0.221
AGAGGTTA	0.0342
AATTCGAT	-0.00758
ACGTGGGA	-0.11
GTACTCAA	0.0157
AGGCTATC	0.0128
AATAGGAA	0.415
CCGCTATA	-0.129
TGCCGAAA	-0.01
AATCACCG	-0.0781
ATTGGAGA	-0.179
AATTGGAA	0.0798

Sequence	PBM E-score
CGGTGCGA	-0.22
CGATGCCC	-0.317
CCAGACGG	-0.383
ACAACTCA	0.136
ATAAGATA	0.0848
CAGTGTGC	-0.00973
AAGACCAC	-0.0616
CTCATTGA	-0.177
AACTCGAT	0.0481
CAGAGTGA	-0.0154
ACACTCCG	0.136
AGGATGGC	-0.182
CCAGAGAG	-0.375
CGCTGGCC	-0.282
GTAGCCAA	-0.126
GTAGGCGA	-0.00968
AAACCGTT	0.0697
CGAGAGTA	0.0867
AGCAGCTG	-0.0318
CGACAGTC	-0.303
AGTATAAG	0.116
ATCGCAAG	-0.124
CAGGGGCG	-0.037
ACCCGTAG	-0.323
ACAACCTC	-0.0767

Sequence	PBM E-score
CGCTTATC	-0.104
GCGTGTGA	0.177
TTCATGAA	0.0534
AACGACCT	-0.0704
CTGTGTGA	0.181
CATTGCGG	-0.219
CTTCCCCA	-0.0726
AGAATGGA	-0.0583
CCAATTTA	0.13
AGCCTGCA	0.344
CTATATAG	-0.00389
ATTGCCGA	-0.0541
AACGCCTC	-0.0755
CCAGTAAC	-0.185
GGTGTACA	0.168
CTAAAGTA	0.0618
CAGCTCTA	-0.168
CTATGATA	0.00157
GCCCCGAA	-0.311
ACTTCTTA	0.0534
TACTGAGA	-0.0385
GTGCAGGA	0.153
AAGTTCCG	0.0427
AAACGGGA	-0.197
AAGCTCCT	-0.11

Sequence	PBM E-score
AAAAATCG	-0.229
CGCTACCG	-0.206
AGCATAGC	-0.0866
GGTCTCTA	-0.232
GGAGTAAC	-0.205
AGCGATCA	-0.201
CAGCGCGA	-0.0906
TGCCGGCA	0.113
CATGGGGG	-0.117
GCATCCCA	-0.213
GGTTGGTA	-0.0527
AAAGCAGG	-0.0323
AGAGGGAG	-0.253
AAAATCTT	-0.0412
GGGCATTA	-0.195
CTTAGCTC	-0.0223
AATTACCT	0.276
CCTTCCAC	0.0694
GCTCACTA	-0.0157
CTTAGACC	-0.0264
ACCGGCAC	0.0245
ACAGTGAG	0.0411
GGGGGGCA	-0.276
GGCCGTTA	-0.266
ACCCCAGT	-0.0507

Sequence	PBM E-score
AGATGATG	-0.191
CAGGTAGA	-0.0121
CTTCCATA	-0.0345
CAGGAAGG	-0.0907
GTCGTTTA	0.175
CAGTCTAA	-0.131
TCGGTAGA	-0.153
GGCTAGCC	-0.42
AGTTAACG	0.164
ACGGGCTG	-0.186
TGACCCCA	-0.144
CGCGGTTC	0.111
TAAGCGTA	-0.0152
GAGGCACA	0.47
AGGAGGCG	-0.163
ATGGTAGC	0.0672
GACGAACC	-0.0482
ACTTGTAC	0.156
CCTCTTCC	-0.103
